From PubChem BioAssay AID1159614 (National Center for Advancing Translational Sciences (NCATS), 2016)
In all, about 45,000 compounds went through this assay and about 65 (0.1%) were called active. Calls follow the shape of the dose curve; as a rule, active = well fitted activation curve with a large enough effect; inconclusive = small, poorly fitted or top-dose-only effect; inactive = no such curve, though single readings can be large or run the other way. The list shows a part of the results.

Each compound was assayed against Galactocerebrosidase (Homo sapiens) (UniProt P54803) (assay: A Novel Cell-Based Assay to Identify Small Molecules for B -Galactocerebrosidase). Settings: 145M-Twi-hGALC-G270D cells (Twitcher mouse brain line with human GALC G270D), HMU-beta-Gal fluorescence, 48 h; series mostly up to 57.5 µM; activation: at the top concentration.
Summary of the method: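 Live 145M-Twi cells (Twitcher mouse brain-derived, GALC-null) stably expressing human GALC-G270D, with a wild-type GALC line, were compound-treated. Residual GALC activity was then read as fluorescence from 0.1 mM final HMU-β-gal at pH 5.2; higher signal means activation.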
Also: 0% is about no effect; nearly all actives have a fitted effect of over 65% in size.

Sequence of UniProt P54803 (P54803 whole entry, looked up): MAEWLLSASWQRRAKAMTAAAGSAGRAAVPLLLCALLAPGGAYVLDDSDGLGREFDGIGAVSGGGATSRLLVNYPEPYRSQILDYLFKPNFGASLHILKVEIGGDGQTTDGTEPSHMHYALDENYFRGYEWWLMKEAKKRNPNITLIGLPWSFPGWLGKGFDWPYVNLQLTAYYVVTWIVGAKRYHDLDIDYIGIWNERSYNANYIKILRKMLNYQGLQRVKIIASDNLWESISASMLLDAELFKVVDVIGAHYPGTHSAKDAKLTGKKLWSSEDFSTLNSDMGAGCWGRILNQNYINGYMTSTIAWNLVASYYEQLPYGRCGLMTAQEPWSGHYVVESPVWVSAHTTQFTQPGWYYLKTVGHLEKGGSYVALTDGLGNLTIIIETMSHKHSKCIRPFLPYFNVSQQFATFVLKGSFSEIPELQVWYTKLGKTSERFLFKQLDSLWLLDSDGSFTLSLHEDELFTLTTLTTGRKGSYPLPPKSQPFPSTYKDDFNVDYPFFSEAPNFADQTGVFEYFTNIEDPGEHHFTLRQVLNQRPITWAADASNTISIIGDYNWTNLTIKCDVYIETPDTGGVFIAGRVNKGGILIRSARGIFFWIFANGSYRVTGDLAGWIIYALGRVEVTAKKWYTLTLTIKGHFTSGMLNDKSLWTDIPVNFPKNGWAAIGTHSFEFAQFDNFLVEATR

activation, inactive:
CCN(CC)C(=O)c1ccc2c(c1)N(Cc1c(F)cccc1Cl)C(=O)c1ccccc1S2 -9.92%, CC(C)C(NS(=O)(=O)c1ccc2c(c1)oc(=O)n2C)C(=O)N1CCN(c2cccc(Cl)c2)CC1 (configuration not stated) -14.6%, O=C(CSc1nc(=O)[nH]c2c1CCCC2)Nc1ccc(Cl)c(Cl)c1 -14.8%, COc1ccc(N2CC(NC(=O)c3cccs3)CC2=O)cc1 (configuration not stated) -8.27%, Cc1ccn2c(Nc3c(C)cccc3C)c(-c3ccsc3)nc2c1 -11.4%, COC(=O)Cn1c(=NC(=O)c2ccc3c(c2)OCCO3)sc2ccccc21 -18.3%, Cc1ccc(C(=O)n2nc(C)c(S(=O)(=O)N3CCCCCC3)c2C)cc1C -6.07%, Cc1cc(N2CCN(C)CC2)nc2ccc(NC(=O)c3ccc(C(C)(C)C)cc3)cc12 -10.2%, CCN(CC)S(=O)(=O)c1ccc(NC(=O)c2cc3ccc4cccnc4c3[nH]2)cc1 -9.15%, CN(Cc1ccccc1)c1nnc(NC(=O)Nc2cccc(Br)c2)s1 -6.14%, Cc1ccc(-n2nc(C(=O)Nc3ccc(F)cc3Cl)c(=O)n(C)c2=O)cc1 -14.1%, CCOC(=O)c1c(S(=O)(=O)N2CCC(C(=O)NCc3cccc(C)c3)CC2)c(C)n(C)c1C -12.5%, CCOc1cccc2sc(N3CCN(C(=O)c4ccc5c(c4)CCCC5)CC3)nc12 -7.55%, COc1ccc(CNC(=O)c2nc(SCc3ccc(C)cc3)ncc2Cl)cc1 -1.73%, CCc1nnc(NC(=O)CSc2nccn2Cc2ccc(C)cc2)s1 -9.03%, COc1ccccc1NC(=O)CSc1nc(O)c(C/C=C/c2ccccc2)c(=O)[nH]1 -6.6%, COc1ccc(Cn2c(=O)n(-c3ccc(F)c(Cl)c3)c(=O)c3c2c2cc(OC)ccc2n3C)cc1 -17.2%, Cc1noc(NS(=O)(=O)c2ccc(N)cc2)c1C -9.4%, O=C(c1cccs1)N1CCCc2cc(NS(=O)(=O)c3ccc(Cl)cc3)ccc21 -8.24%, COc1ccc(C(CNC(=O)c2ccc(C)cc2)N2CCOCC2)cc1 (configuration not stated) -11.6%, COc1ccc(NC(=O)c2cnc(SCC(=O)Nc3nc4ccc(C)cc4s3)n(C)c2=O)cc1 -9.3%, CC(=O)c1ccc(NC(=O)Cn2c3ncccc3c(=O)n2-c2ccc(C)cc2)cc1 3.44%, CCc1ccc(C2C(C(=O)Nc3ccccc3)=C(C)Nc3nc(SCC(=O)c4ccc(C)cc4)nn32)cc1 (configuration not stated) -8.08%, CCc1cccc2c3c([nH]c12)C(CC)(CC(=O)O)OCC3 (configuration not stated) -13.7%, O=C(c1ccco1)c1cn(CCOc2ccc(Cl)cc2)c2ccccc12 -19.4%, Cc1cccc(C(=O)NCC(c2ccc3c(c2)OCO3)N2CCOCC2)c1 (configuration not stated) -5.55%, Cc1ccc(-c2noc(CSc3nnc(-c4ccc(Cl)cc4)n3C)n2)cc1 -18.7%
